Structures can show the parent of a compound that is named as a salt. The list shows a part of the results.
Each compound was assayed on Schistosoma mansoni schistosomula (assay: phenotypic hit in primary schistosomula screen (any phenotype vs DMSO control) (binary (1 = hit, 0 = no phenotype)); higher = active (phenotype induced)). Conditions: 1 µM; time (d): 7.
`C=C[C@H]1CN2CC[C@H]1C[C@H]2[C@H](O)c1ccnc2ccccc12` [cinchonidine] was tested, and the phenotypic hit was inactive: 0. With `CC1=NCCc2c1[nH]c1cc(O)ccc21` [harmalol hydrochloride] the phenotypic hit was inactive: 0. With `COc1c2c(c(CC=C(C)C)c3oc(=O)c(-c4ccc(O)cc4)c(O)c13)OC(C)(C)C=C2` [lonchocarpic acid] the phenotypic hit was inactive: 0. For `CNNC` [1,2-dimethylhydrazine hydrochloride], the phenotypic hit was inactive: 0. In the case of `O=C1C=CC(=O)c2c(O)cccc21` [juglone], the phenotypic hit is reported as inactive: 0. `CC1(C)C2(Cl)C(Cl)C(Cl)C(Cl)(C(Cl)Cl)C1(Cl)C2Cl` (stereo not drawn) [strobane] was tested, and the phenotypic hit was inactive: 0. In the case of `CNC(=O)ON=C(C)SC` [methomyl], the phenotypic hit is reported as active: 1. In the case of `COc1cc(OC)c2c(c1)O[C@H](c1ccc(OC)c(OC)c1)[C@@H](O)C2` [catechin tetramethylether], the phenotypic hit is reported as inactive: 0. For `OC[C@@H]1CCCN2CCCC[C@H]12` [lupinine], the phenotypic hit was inactive: 0. For `C1CCc2nnnn2CC1` [pentetrazole], the phenotypic hit was inactive: 0. In the case of `C=C[C@H]1CN2CC[C@H]1C[C@@H]2[C@@H](O)c1ccnc2ccccc12` [cinchonine], the phenotypic hit is reported as inactive: 0. `CC(Cc1ccc(O)cc1)NCC(O)c1cc(O)cc(O)c1` (stereo not drawn) [fenoterol hydrobromide] was tested, and the phenotypic hit was inactive: 0. With `COc1ccc([C@H]2Oc3c(I)c(OC)cc(OC)c3C[C@@H]2O)cc1OC` [8-iodocatechin tetramethyl ether] the phenotypic hit was inactive: 0. In the case of `CSc1nc(NC(C)C)nc(NC(C)C)n1` [prometryn], the phenotypic hit is reported as inactive: 0. `CC1=CC(=O)C2=C(C)C[C@H](O)[C@@H]3[C@H](OC(=O)[C@H]3C)[C@H]12` [austricine] was tested, and the phenotypic hit was inactive: 0. `ClC1=C(Cl)C2(Cl)C3C(Cl)C=CC3C1(Cl)C2(Cl)Cl` (stereo not drawn) [heptachlor] was tested, and the phenotypic hit was inactive: 0. In the case of `CC(C)CC(NC(=O)C(Cc1ccccc1)NC(=O)CNC(=O)CNC(=O)C(N)Cc1ccc(O)cc1)C(=O)O` (stereo not drawn) [leucine enkephalin], the phenotypic hit is reported as inactive: 0. `CC(=O)C1=C(O)[C@@H]2[C@H]3c4c[nH]c5cccc(c45)C[C@H]3C(C)(C)N2C1=O` [cyclopiazonic acid] was tested, and the phenotypic hit was active: 1. With `N#Cc1c(Cl)cccc1Cl` [dichlobenil] the phenotypic hit was inactive: 0. For `NCCc1cccc(O)c1` [metatyramine hydrochloride], the phenotypic hit was inactive: 0. In the case of `Cc1c(O)c(C(=O)CC(C)C)c2oc3c(C(=O)CC(C)C)c(O)c(C)c(O)c3c2c1O` [rhodomyrtoxin], the phenotypic hit is reported as inactive: 0. In the case of `COc1cc([C@@H]2c3cc4c(cc3[C@H](O)[C@H]3COC(=O)[C@@H]23)OCO4)cc(OC)c1OC` [picropodophyllin], the phenotypic hit is reported as inactive: 0. In the case of `CCCC(C)C1(CC)C(=O)NC(=S)NC1=O` (stereo not drawn) [thiopental sodium], the phenotypic hit is reported as inactive: 0. With `COc1c2c(cc3c1OCO3)[C@]13C=C[C@H](OC)C[C@H]1N(C2)C[C@@H]3O` [ambelline] the phenotypic hit was inactive: 0. `CC(C)=CC1C(C(=O)OCc2cccc(Oc3ccccc3)c2)C1(C)C` (stereo not drawn) [phenothrin] was tested, and the phenotypic hit was inactive: 0. With `C[CH2][Hg][S]c1ccccc1C(=O)[O-].[Na+]` [thimerosal] the phenotypic hit was active: 1. With `CC1(C)C(=O)C=C[C@]2(C)[C@H]3CC[C@@]4(C)[C@H](c5ccoc5)OC(=O)[C@H]5O[C@]54[C@]3(C)[C@H](O)C[C@@H]12` [deacetylgedunin] the phenotypic hit was inactive: 0. For `Nc1ccncc1` [4-Aminopyridine], the phenotypic hit was inactive: 0. With `O=C(O)CNCP(=O)(O)O` [glyphosate] the phenotypic hit was inactive: 0. In the case of `C[C@]12CC[C@H](O)C[C@@H]1CC[C@@H]1[C@@H]2CC[C@]2(C)[C@@H](O)CC[C@@H]12` [5alpha-androstan-3beta,17beta-diol], the phenotypic hit is reported as inactive: 0. With `CC[C@H](C)[C@H]1O[C@]2(C=C[C@@H]1C)C[C@@H]1C[C@@H](C/C=C(\C)[C@@H](O[C@H]3C[C@H](OC)[C@@H](O[C@H]4C[C@H](OC)[C@@H](O)[C@H](C)O4)[C@H](C)O3)[C@@H](C)/C=C/C=C3\CO[C@@H]4[C@H](O)C(C)=C[C@@H](C(=O)O1)[C@]34O)O2.CO[C@H]1C[C@H](O[C@H]2[C@H](C)O[C@@H](O[C@@H]3/C(C)=C/C[C@@H]4C[C@@H](C[C@]5(C=C[C@H](C)[C@@H](C(C)C)O5)O4)OC(=O)[C@@H]4C=C(C)[C@@H](O)[C@H]5OC/C(=C\C=C\[C@@H]3C)[C@]54O)C[C@@H]2OC)O[C@@H](C)[C@@H]1O` [avermectin b1] the phenotypic hit was inactive: 0. `COc1cc([C@@H]2c3cc4c(cc3[C@H](OC(C)=O)[C@H]3COC(=O)[C@H]23)OCO4)cc(OC)c1OC` [podophyllotoxin acetate] was tested, and the phenotypic hit was inactive: 0. In the case of `CCCCCCCCCCCCCC(=O)O[C@@H]1[C@@H](C)[C@@]2(O)[C@@H](C=C(CO)C[C@]3(O)C(=O)C(C)=C[C@@H]23)[C@@H]2C(C)(C)[C@]12OC(C)=O` [phorbol myristate acetate], the phenotypic hit is reported as inactive: 0. With `COc1ccc(C(=O)N2CCCC2=O)cc1` [Aniracetam] the phenotypic hit was inactive: 0. In the case of `COc1nc(NC(C)C)nc(NC(C)C)n1` [prometon], the phenotypic hit is reported as inactive: 0. `CCCCOC(=O)c1ccccc1C(=O)OCc1ccccc1` [benzylbutylphthalate] was tested, and the phenotypic hit was inactive: 0. For `O=C(O)CCCc1ccc(N(CCCl)CCCl)cc1` [chlorambucil], the phenotypic hit was inactive: 0. For `CC[C@@]1(O)C[C@H](O)c2c(cc3c(c2O)C(=O)c2c(O)ccc(O)c2C3=O)[C@H]1C(=O)OC` [rutilantinone], the phenotypic hit was inactive: 0. For `CC[C@@H](C)C(=O)O[C@H]1[C@H](O)[C@H]2[C@@H](CN3C[C@@H](C)CC[C@H]3[C@@]2(C)O)[C@@H]2C[C@]34O[C@]5(O)[C@@H](OC(=O)[C@](C)(O)[C@@H](C)O)CC[C@@]3(C)[C@@H]5[C@@H](OC(C)=O)[C@@H](OC(C)=O)[C@H]4[C@@]21O` (stereo in doubt) [protoveratrine b], the phenotypic hit was inactive: 0. In the case of `CC1=C(O)C(=O)C=C2C1=CC=C1[C@@]2(C)CC[C@@]2(C)[C@@H]3C[C@](C)(C(=O)O)CC[C@]3(C)CC[C@]12C` [celastrol], the phenotypic hit is reported as active: 1. With `CC(=O)Oc1ccc(/C=C/c2cc(OC(C)=O)cc(OC(C)=O)c2)cc1` [triacetylresveratrol] the phenotypic hit was inactive: 0. In the case of `N#C/C(=C\c1ccc(O)cc1)C(=O)O` [alpha-cyano-4-hydroxycinnamic acid], the phenotypic hit is reported as inactive: 0. In the case of `Oc1cccc2cccnc12` [oxyquinoline], the phenotypic hit is reported as inactive: 0. `N.N.[Cl][Pt][Cl]` [cisplatin] was tested, and the phenotypic hit was inactive: 0. For `COc1cc(OC)c2c(c1)OC(c1ccc(OC)c(OC)c1)C(O)C2` (stereo not drawn) [epicatechin, tetramethyl ether], the phenotypic hit was inactive: 0. `CCCN1C[C@H](CSC)C[C@@H]2c3cccc4[nH]cc(c34)C[C@H]21` [Pergolide methanesulfonate] was tested, and the phenotypic hit was active: 1. In the case of `OC1CCCCC1N1CCC(c2ccccc2)CC1` (racemic) [(±)-Vesamicol hydrochloride], the phenotypic hit is reported as inactive: 0. For `CC(C)N1C(=O)c2ccccc2NS1(=O)=O` [bentazon], the phenotypic hit was inactive: 0. With `c1ccc2c(c1)cc1ccc3cccc4ccc2c1c34` [benzo[a]pyrene] the phenotypic hit was inactive: 0. For `CCCCCCCCCc1ccc(O)cc1` [4-nonylphenol], the phenotypic hit was inactive: 0. For `COc1ccc2[nH]cc(CCN)c2c1` [mexamine], the phenotypic hit was inactive: 0. `CNc1ccc(C(=O)CC(O)CCC(C)C2OC(=O)CC(O)CC(=O)CC(O)CC(O)CC(O)CC(O)CC3(O)CC(O)C(C(=O)OC)C(CC(O[C@@H]4O[C@H](C)[C@@H](O)[C@H](N)[C@@H]4O)/C=C/C=C/C=C/C=C/C=C/C=C/C=C/C2C)O3)cc1.COC(=O)C1C(O)CC2(O)CC(O)CC(O)CC(O)CC(O)CC(=O)CC(O)CC(=O)OC(C(C)CCC(O)CC(=O)c3ccc(N)cc3)C(C)/C=C/C=C/C=C/C=C/C=C/C=C/C=C/C(O[C@@H]3O[C@H](C)[C@@H](O)[C@H](N)[C@@H]3O)CC1O2` (stereo partly drawn) [mepartricin] was tested, and the phenotypic hit was inactive: 0. With `COC(=O)[C@]1(C)CC[C@]2(C)CC[C@]3(C)C4=CC=C5C(=CC(=O)C(O)=C5C)[C@]4(C)CC[C@@]3(C)[C@@H]2C1` [pristimerin] the phenotypic hit was active: 1. With `Cc1ncc(CNC(=O)N(CCCl)N=O)c(N)n1` [nimustine] the phenotypic hit was inactive: 0. For `CN1CCCCC1c1ccc(-c2cccnc2)nc1` (stereo not drawn) [anabasamine hydrochloride], the phenotypic hit was inactive: 0. For `CC1(C)C(=O)C=CC2(C)C3CCC4(C)C(c5ccoc5)CC5OC54C3C(O)CC12` (stereo not drawn) [trichilenone], the phenotypic hit was inactive: 0. `CC(C)=CCC[C@]1(C)C=Cc2c(O)c3c(c(CC=C(C)C)c2O1)O[C@]12C(=C[C@@H]4C[C@H]1C(C)(C)O[C@@]2(C/C=C(/C)C(=O)O)C4=O)C3=O` [gambogic acid] was tested, and the phenotypic hit was active: 1. In the case of `C#CCOS(=O)OC1CCCCC1Oc1ccc(C(C)(C)C)cc1` (stereo not drawn) [propargite], the phenotypic hit is reported as inactive: 0. With `NCCc1cc(O)c(O)cc1O` [oxidopamine hydrochloride] the phenotypic hit was inactive: 0. In the case of `C[C@]12CCC3C(CC[C@H]4C[C@H](OS(=O)(=O)O)CC[C@]34C)C1CCC2=O` (stereo partly drawn) [androsterone sodium sulfate], the phenotypic hit is reported as inactive: 0. `CC[C@@]1(O)C(=O)OCc2c1cc1n(c2=O)Cc2cc3ccccc3nc2-1` [camptothecin] was tested, and the phenotypic hit was inactive: 0. In the case of `O=C1C[C@@H]2OCC=C3CN4CC[C@]56c7ccccc7N1[C@H]5[C@H]2[C@H]3C[C@H]46` [strychnine], the phenotypic hit is reported as inactive: 0. In the case of `COc1ccc2c(c1OC)C(=O)OC2[C@H]1c2cc3c(cc2CCN1C)OCO3` (stereo in doubt) [1r,9s-hydrastine], the phenotypic hit is reported as inactive: 0.
